Test results taken from PMC11381307 (Frontiers in Pharmacology, 2024).

How the values were obtained:
[1] = target: T1, OATP1B3 (Homo sapiens, UniProt Q9NPD5); conditions: 10 μM MPAG
T1 sequence (Q9NPD5 1-702): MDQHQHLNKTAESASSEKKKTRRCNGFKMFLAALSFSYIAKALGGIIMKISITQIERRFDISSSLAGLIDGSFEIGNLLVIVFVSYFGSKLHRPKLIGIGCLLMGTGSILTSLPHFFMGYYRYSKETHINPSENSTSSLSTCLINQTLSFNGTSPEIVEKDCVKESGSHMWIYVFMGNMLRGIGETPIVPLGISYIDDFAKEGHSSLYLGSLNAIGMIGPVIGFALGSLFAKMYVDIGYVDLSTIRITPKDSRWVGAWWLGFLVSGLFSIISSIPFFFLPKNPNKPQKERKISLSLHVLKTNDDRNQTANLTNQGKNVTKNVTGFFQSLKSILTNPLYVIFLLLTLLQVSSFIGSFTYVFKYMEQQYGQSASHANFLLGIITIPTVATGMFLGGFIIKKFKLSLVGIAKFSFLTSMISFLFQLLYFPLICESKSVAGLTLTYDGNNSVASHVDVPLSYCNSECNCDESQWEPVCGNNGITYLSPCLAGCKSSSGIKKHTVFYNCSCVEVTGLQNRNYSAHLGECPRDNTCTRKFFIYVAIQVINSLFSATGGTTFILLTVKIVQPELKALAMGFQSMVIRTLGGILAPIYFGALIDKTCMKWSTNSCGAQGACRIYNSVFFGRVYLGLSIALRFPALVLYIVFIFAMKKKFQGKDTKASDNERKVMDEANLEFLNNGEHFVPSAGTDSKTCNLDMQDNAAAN

[2] = target: T1, OATP1B3; experiment: Transporter substrate study using HEK293-OATP1B3 cells
[3] = target: T1, OATP1B3; experiment: cell-based

`CO[C@H]1/C=C/O[C@@]2(C)Oc3c(C)c(O)c4c(O)c(c(/C=N/N5CCN(C)CC5)c(O)c4c3C2=O)NC(=O)/C(C)=C\C=C\[C@H](C)[C@H](O)[C@@H](C)[C@@H](O)[C@@H](C)[C@H](OC(C)=O)[C@@H]1C` [rifampicin] was tested. Which “Relative net uptake rate of MPAG (% of NC), Mean” value ([1]; 0.1 μM) did it give?
Its value is 64.0 % of NC.

What about the “Relative net uptake rate of MPAG (% of NC), Mean” value ([1]; 1 μM) of the same compound?
Its value is 37.9 % of NC.

And the “Relative net uptake rate of MPAG (% of NC), Mean” value ([1]; 3 μM)?
The value was 12.7 % of NC.

And the “Relative net uptake rate of MPAG (% of NC), Mean” value ([1]; 10 μM)?
The value was 6.48 % of NC.

What about the “Relative net uptake rate of MPAG (% of NC), Mean” value ([1]; 30 μM) of the same compound?
The value was 4.14 % of NC.

And the “Relative net uptake rate of MPAG (% of NC), Mean” value ([1]; 100 μM)?
The value was 6.49 % of NC.

And the IC50 ([1]; read-out: IC50 value on OATP1B3-mediated uptake of MPAG)?
The IC50 was 0.224 µM.

And the “inhibition rate of OATP1B3-mediated MPAG uptake” value ([2]; 100 μM inhibitor, 10 μM MPAG)?
The value was 99.7%.

What about the “inhibition rate of OATP1B3-mediated E217βG uptake” value ([2]; rifampicin treatment, probe substrate E217βG) of the same compound?
The value was 92.7%.

Which IC50 [3] does the source give for `C[C@]12C=CC(=O)C=C1CC[C@@H]1[C@@H]2[C@@H](O)C[C@@]2(C)[C@H]1CC[C@]2(O)C(=O)CO` [prednisolone] here?
Its IC50 is 119 µM.

`C[C@]12CC[C@@H]3c4ccc(O)cc4CC[C@H]3[C@@H]1CC[C@@H]2O[C@@H]1O[C@H](C(=O)O)[C@@H](O)[C@H](O)[C@H]1O` [E217βG, Estradiol-17β-D-glucuronide] was tested. Which “uptake ratio (UR) of probe substrate mediated by OATP1B3” value ([2]; without inhibitor, vs MOCK cells) did it give?
The value was 12.1.

Like-named read-outs stand apart in the source and are kept apart here.
